Experimental data: the supplement of paper PMC4604168 (melanoma cell lines)
This is one part of the list. Many values rest on one well or one pass, so single values are uncertain.

Experiments:
Experiment in all cases: cell count relative to DMSO control; melanoma cells; higher = more viable cells
Details in all cases: library dose: low library concentration; 72 h
[1] = test system: COLO792
[2] = test system: COLO800
[3] = test system: COLO829
[4] = test system: G361
[5] = test system: IPC-298
[6] = test system: IST-MEL1
[7] = test system: LB2518-MEL
[8] = test system: LOXIMVI
[9] = test system: MEL-HO
[10] = test system: MZ2-MEL
[11] = test system: MeWo
[12] = test system: RPMI7951
[13] = test system: RVH-421
[14] = test system: SkMel28
[15] = test system: SkMel2
[16] = test system: SkMel30
[17] = test system: SkMel5
[18] = test system: UACC257
[19] = test system: UACC62
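Note: cell number obtained by counting DAPI-stained nuclei in high-throughput microscope images with image analysis software, screen run in 1,536-well plates.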

Molecule `C[As](C)SC[C@H](NC(=O)CC[C@H](N)C(=O)O)C(=O)NCC(=O)O` [Darinaparsin] + C[C@@H]1CCN(C(=O)CC#N)C[C@@H]1N(C)c1ncnc2[nH]ccc12 [CP690550] (first compound 0.4 µM, partner dose 1 µM) has a cell count [1] of 87.9%, a cell count [2] of 150% and a cell count [3] of 106%. For the same molecule, the cell count [4] was 107%, the cell count [5] was 107% and the cell count [6] was 103%. The cell count [7] was 95.2%, the cell count [8] was 128% and the cell count [9] was 100%. The cell count [10] was 118%, the cell count [11] was 97.6% and the cell count [12] was 124%. For the same molecule, the cell count [13] was 120%, the cell count [14] was 105% and the cell count [15] was 99.9%. For the same molecule, the cell count [16] was 95.3%, the cell count [17] was 91.6% and the cell count [18] was 85.3%. It also gave a cell count [19] of 115%.
Work on `Cn1cc(C2=C(c3cn(C4CCN(Cc5ccccn5)CC4)c4ccccc34)C(=O)NC2=O)c2ccccc21` [Enzastaurin] + CCN(CC)CCCCNc1ncc2cc(-c3cc(OC)cc(OC)c3)c(NC(=O)NC(C)(C)C)nc2n1 [PD173074] (first compound 0.8 µM, partner dose 0.1 µM) yielded a cell count [1] of 106%, a cell count [2] of 135% and a cell count [3] of 98.1%. It also gave a cell count [4] of 94.7%, a cell count [5] of 111% and a cell count [6] of 89.2%. The cell count [7] was 81.7%, the cell count [8] was 72.5% and the cell count [9] was 112%. The cell count [10] was 95.1%, the cell count [11] was 112% and the cell count [12] was 92%. It also gave a cell count [13] of 77.8%, a cell count [14] of 81.2% and a cell count [15] of 85.2%. It also gave a cell count [16] of 86.3%, a cell count [17] of 93.2% and a cell count [18] of 95%. It also gave a cell count [19] of 99.4%.
Molecule `N.N.[Cl][Pt][Cl]` [cisplatin] + Cc1cc(SCc2sc(-c3ccc(C(F)(F)F)c(F)c3)nc2C)ccc1OCC(=O)O [GW0742] (first compound 1.6 µM, partner dose 2 µM) has a cell count [1] of 112%, a cell count [2] of 82.9% and a cell count [3] of 111%. It also gave a cell count [4] of 103%, a cell count [5] of 108% and a cell count [6] of 89.5%. The cell count [7] was 90.6%, the cell count [8] was 113% and the cell count [9] was 97%. It also gave a cell count [10] of 96%, a cell count [11] of 98.6% and a cell count [12] of 103%. It also gave a cell count [13] of 95.3%, a cell count [14] of 83.1% and a cell count [15] of 92.5%. The cell count [16] was 95%, the cell count [17] was 96.8% and the cell count [18] was 111%. For the same molecule, the cell count [19] was 95.4%.
Work on `N.N.[Cl][Pt][Cl]` [cisplatin] + O=C(CCCCCCC(=O)Nc1ccccc1)NO [vorinostat] (first compound 1.6 µM, partner dose 0.08 µM) yielded a cell count [1] of 105%, a cell count [2] of 84.7% and a cell count [3] of 108%. For the same molecule, the cell count [4] was 103%, the cell count [5] was 100% and the cell count [6] was 90.5%. The cell count [7] was 90%, the cell count [8] was 49.6% and the cell count [9] was 89.7%. The cell count [10] was 105%, the cell count [11] was 93.8% and the cell count [12] was 93.5%. It also gave a cell count [13] of 112%, a cell count [14] of 76.7% and a cell count [15] of 92.7%. It also gave a cell count [16] of 109%, a cell count [17] of 91.2% and a cell count [18] of 95%. For the same molecule, the cell count [19] was 89.8%.
For `C[As](C)SC[C@H](NC(=O)CC[C@H](N)C(=O)O)C(=O)NCC(=O)O` [Darinaparsin] + COc1cc2c(Oc3ccc4[nH]c(C)cc4c3F)ncnc2cc1OCCCN1CCCC1 [cediranib] (first compound 0.4 µM, partner dose 0.4 µM), the cell count [1] was 102%, the cell count [2] was 62.8% and the cell count [3] was 119%. It also gave a cell count [4] of 108%, a cell count [5] of 113% and a cell count [6] of 121%. The cell count [7] was 101%, the cell count [8] was 123% and the cell count [9] was 107%. The cell count [10] was 107%, the cell count [11] was 108% and the cell count [12] was 133%. It also gave a cell count [13] of 102%, a cell count [14] of 120% and a cell count [15] of 102%. It also gave a cell count [16] of 109%, a cell count [17] of 94.5% and a cell count [18] of 83%. For the same molecule, the cell count [19] was 109%.
Work on `N.N.[Cl][Pt][Cl]` [cisplatin] + Cc1ccc(NC(=O)c2cccc(N(C)C)c2)cc1NC(=O)c1ccc(O)cc1 [ZM336372] (first compound 1.6 µM, partner dose 2 µM) yielded a cell count [1] of 107%, a cell count [2] of 124% and a cell count [3] of 115%. It also gave a cell count [4] of 107%, a cell count [5] of 78.8% and a cell count [6] of 98.3%. For the same molecule, the cell count [7] was 86.7%, the cell count [8] was 145% and the cell count [9] was 94.4%. It also gave a cell count [10] of 80%, a cell count [11] of 104% and a cell count [12] of 79.8%. The cell count [13] was 101%, the cell count [14] was 104% and the cell count [15] was 102%. For the same molecule, the cell count [16] was 82.3%, the cell count [17] was 101% and the cell count [18] was 89.7%. The cell count [19] was 98.8%.
`N.N.[Cl][Pt][Cl]` [cisplatin] + Cn1cncc1[C@@](N)(c1ccc(Cl)cc1)c1ccc2c(c1)c(-c1cccc(Cl)c1)cc(=O)n2C [tipifarnib] (first compound 1.6 µM, partner dose 0.01 µM) showed a cell count [1] of 89.6%, a cell count [2] of 121% and a cell count [3] of 97.6%. For the same molecule, the cell count [4] was 107%, the cell count [5] was 101% and the cell count [6] was 93.6%. It also gave a cell count [7] of 84.2%, a cell count [8] of 76.5% and a cell count [9] of 101%. For the same molecule, the cell count [10] was 112%, the cell count [11] was 96.9% and the cell count [12] was 99.8%. The cell count [13] was 69.8%, the cell count [14] was 104% and the cell count [15] was 90.9%. The cell count [16] was 104%, the cell count [17] was 94.1% and the cell count [18] was 84.1%. It also gave a cell count [19] of 86.5%.
`N.N.[Cl][Pt][Cl]` [cisplatin] + Oc1cc(-c2nc(-c3ccccc3)[nH]c2-c2ccncc2)ccc1Cl [L779450] (first compound 1.6 µM, partner dose 0.2 µM) was tested, and the cell count [1] was 90.9%, the cell count [2] was 92.3% and the cell count [3] was 84.6%. The cell count [4] was 96.2%, the cell count [5] was 77.8% and the cell count [6] was 91.5%. It also gave a cell count [7] of 30.9%, a cell count [8] of 149% and a cell count [9] of 56.1%. The cell count [10] was 76.1%, the cell count [11] was 94.6% and the cell count [12] was 76.4%. It also gave a cell count [13] of 107%, a cell count [14] of 88.2% and a cell count [15] of 99.2%. The cell count [16] was 78.6%, the cell count [17] was 97.3% and the cell count [18] was 96.2%. It also gave a cell count [19] of 102%.
